Several values for one entry are separate records, joined by “and”; a condition that tells them apart may be missing. Identical values can stand only once. Screen size: about 270,000 compounds; about 620 (0.23%) were called active. Inconclusive means that the source gave no clear call. Such entries were picked first, then a sample of the others. The call rests on the fitted dose curve; in most records, active means well fitted inhibition curve with a large enough effect in the polarisation, with a control signal flat (not every such curve was filed as active); inconclusive means small, poorly fitted or top-dose-only effect, or effect the other way, or a change in a side signal; inactive means no such curve, though single readings can be large or run the other way; the % refers to the polarisation. Where the call is inconclusive, the potency comes from a doubtful curve fit. “Side channel” marks fits to a control or component signal instead of the main read-out.
Biological target: Menin (Homo sapiens) (UniProt O00255)
UniProt O00255, sequence (O00255 whole entry, looked up): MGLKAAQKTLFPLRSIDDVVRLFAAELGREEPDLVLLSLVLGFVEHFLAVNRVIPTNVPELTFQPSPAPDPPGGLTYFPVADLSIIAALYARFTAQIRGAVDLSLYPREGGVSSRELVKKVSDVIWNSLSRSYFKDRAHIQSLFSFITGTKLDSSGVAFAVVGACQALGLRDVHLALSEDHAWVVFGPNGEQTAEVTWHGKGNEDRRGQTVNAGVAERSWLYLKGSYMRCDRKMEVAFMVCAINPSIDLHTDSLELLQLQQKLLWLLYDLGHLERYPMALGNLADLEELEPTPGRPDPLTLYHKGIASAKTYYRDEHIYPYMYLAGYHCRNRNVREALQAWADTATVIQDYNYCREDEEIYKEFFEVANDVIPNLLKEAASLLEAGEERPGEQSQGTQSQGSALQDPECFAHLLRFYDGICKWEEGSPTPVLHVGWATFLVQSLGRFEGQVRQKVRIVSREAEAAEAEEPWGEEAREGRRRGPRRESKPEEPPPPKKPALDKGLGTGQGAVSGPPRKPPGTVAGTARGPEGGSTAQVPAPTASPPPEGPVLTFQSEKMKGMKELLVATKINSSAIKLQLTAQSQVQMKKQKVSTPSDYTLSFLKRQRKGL
Assay: qHTS Assay for Inhibitors Targeting the Menin-MLL Interaction in MLL Related Leukemias: Competition With Texas Red Labeled MLL-derived Mutant Peptide; on FP activity change, negative = inhibition: % of control where 0% means no effect
Details: fluorescence polarization; FP activity change, negative = inhibition: at 61.6 µM (top of the series)
Potency means the concentration at half of the fitted maximal effect; tags describe the fitted curve by direction and shape or compound fluorescence and quenching.

Potency, inconclusive:
Cc1ccc(-c2nn(-c3cc(N4CCNCC4)ccc3[N+](=O)[O-])c(=O)c3ccccc23)cc1 8.91 µM [fluorescent, side channel, partial curve]
CCCCN(CCO)c1ncnc2sc(-c3ccccc3)cc12 35.5 µM [fluorescent, side channel, single point]
CC1(C)O[C@H]2OC([C@H](O)CON3C(=O)c4ccccc4C3=O)[C@H](O)[C@H]2O1 (stereo not given in full) 7080 µM [fluorescent, side channel, partial curve]
CN(C)c1ccc(/C=N/N(Cc2ccccc2)c2ccccc2)cc1 1.78 µM [quencher, side channel, full curve]
CC(=O)Oc1cccc(C(=O)Nc2ccc(NC(=O)c3cccs3)cc2)c1 39.8 µM [fluorescent, side channel, single point]
C=CCn1c(SCC(=O)N2CCc3ccccc3C2)nc2sc(CC)cc2c1=O 22.4 µM [fluorescent, side channel, partial curve]
CC1CN2C(CCC(C)C2c2ccc(Br)cc2)C(=O)O1 (stereo not given) 3.98 µM [quencher, side channel, single point]
CCOc1ccc(NC(=O)CCC(=O)N/N=C/c2ccc([N+](=O)[O-])s2)cc1 28.2 µM [quencher, side channel, single point]
COc1cccc(CN(C)CC2CCCN(CCc3ccc(Cl)cc3)C2)c1OC (stereo not given) 12.6 µM [inhibitor, partial curve]
CCOC(=O)CSc1nnc(NC(=O)c2cc([N+](=O)[O-])cc([N+](=O)[O-])c2)s1 31.6 µM [quencher, side channel, single point]
COc1cccc(Nc2ncc3nc(C)c(=O)n(CCC#N)c3n2)c1 17.8 µM [quencher, side channel, partial curve]
Oc1cc(O)cc(/C=C/c2ccc(O)c(O)c2)c1 25.1 µM [quencher, side channel, partial curve] and 4.47 µM [quencher, side channel, partial curve]
Oc1ccccc1N1CCN(CC(O)COC2CCCc3ccccc32)CC1 (stereo not given) 11.2 µM [inhibitor, partial curve]
CC(=O)c1cccc(NC(=O)c2cccc(NC(=O)c3ccco3)c2)c1 39.8 µM [inhibitor, single point]
O=C(Nc1cc(S(=O)(=O)Nc2ccccc2Cl)ccc1O)c1sc2cc(Cl)ccc2c1Cl 8.91 µM [quencher, side channel, full curve, poor fit]
CC(=O)Cc1nsc(NC(=O)c2ccc(-c3cc(Cl)ccc3Cl)o2)n1 39.8 µM [quencher, side channel, single point]
O=S(=O)(Nc1ccc(OC(F)F)cc1)c1ccc(-c2ccon2)s1 14.1 µM [quencher, side channel, partial curve]
COc1ccc(-c2csc(NC(=O)c3ccco3)n2)cc1 39.8 µM [quencher, side channel, single point]
COc1cccc(Nc2nc(-c3sc(NC(=O)c4ccccc4)nc3C)cs2)c1 6.31 µM [quencher, side channel, partial curve]
Cc1nn(-c2ccccc2)c2nc(-c3cccs3)cc(C(=O)NN)c12 7.08 µM [inhibitor, single point]
NS(=O)(=O)c1ccc(NC(=O)c2cc(=O)c3ccccc3o2)cc1 8.91 µM [fluorescent, side channel, single point]
Cc1c(C=O)c2cc(OCc3ccccc3)ccc2n1C 39.8 µM [inhibitor, single point]
Cc1cccc2c1Sc1ccccc1CC2=O 2.82 µM [inhibitor, full curve, poor fit]
CC(C)c1ccc(NC(=O)CCNS(=O)(=O)c2cc(Br)cnc2N)cc1 20 µM [quencher, side channel, single point]
O=C(Cc1ccccc1F)Nc1nc(-c2ccc(F)cc2)cs1 25.1 µM [quencher, side channel, partial curve]
Cc1cc(C)n(-c2nc3ccccc3nc2Nc2ccc3[nH]c(=O)[nH]c3c2)n1 7.08 µM [quencher, side channel, partial curve]
COCCN1C(=O)/C(=C2/C(=O)N(CC(=O)Nc3ccccc3Cl)c3ccccc32)SC1=S 11.2 µM [quencher, side channel, partial curve]
Oc1ccc2ccccc2c1C=Nc1ccccc1Br 39.8 µM [inhibitor, single point]
CN(C)CCCNC(=O)/C(=C\c1ccc(-c2ccc(Br)cc2)o1)NC(=O)c1ccccc1 15.8 µM [fluorescent, side channel, single point]
CCN(CC)S(=O)(=O)c1ccc(NC(=O)COC(=O)c2cc(S(=O)(=O)Nc3ccc(OC)cc3)ccc2O)cc1 4.47 µM [quencher, side channel, full curve, poor fit]
NC(=O)c1ccc(-n2nnnc2Oc2ccccc2C(=O)N2CCOCC2)cc1 6.31 µM [inhibitor, full curve]
CC(=O)c1sc2nc(-c3ccccc3)cc(C)c2c1N 39.8 µM [fluorescent, side channel, single point]
CCOc1ccccc1C1NC(=O)NC(C)=C1C(=O)OCc1ccccc1 (stereo not given) 14.1 µM [fluorescent, side channel, partial curve]
CC(C)CN(CC(C)C)C(=O)c1cc2c(=O)n3ccccc3nc2s1 39.8 µM [inhibitor, partial curve, poor fit]
O=C(O)Cc1sc(Nc2cccc3ccccc23)nc1-c1ccc(Cl)cc1 15.8 µM [quencher, partial curve]
CNC(=S)N/N=C/c1c2ccccc2c(Cl)c2ccccc12 12.6 µM [quencher, side channel, partial curve]
O=C(Nc1ccccc1)Nc1ccc(Cl)c(S(=O)(=O)N2CCOCC2)c1 14.1 µM [quencher, side channel, partial curve]
COC(=O)C(CCSC)NC(=O)c1cc2c(n(-c3ccc(C)cc3)c1=O)CCCC2=O (stereo not given) 10 µM [quencher, side channel, partial curve]
N#Cc1ccc(C(=O)Nc2nnc(-c3ccccn3)o2)cc1 12.6 µM [inhibitor, partial curve, poor fit]
COc1ccc(Cl)cc1NC(=O)Nc1ccccc1SC 7.94 µM [quencher, side channel, partial curve]
N#Cc1ccc(-c2ccco2)nc1SCc1ccccc1 25.1 µM [quencher, side channel, partial curve]
CNC[C@@H](Cc1ccccc1)NC[C@@H](CC1CCCCC1)NCCCc1ccccc1 31.6 µM [inhibitor, single point]
CC(=O)c1ccc(-c2c(C3C4C=CCCC4(C)C(=O)N3Cc3ccccc3)ccc3ccccc23)cc1 (stereo not given) 1.78 µM [fluorescent, side channel, full curve, poor fit]
COc1ccc(NC(=S)N2CCC(C(O)(c3ccccc3)c3ccccc3)CC2)cc1 25.1 µM [inhibitor, single point]
O=C(O)CC(NC(=O)C(F)(F)F)c1ccc2c(c1)OCO2 (stereo not given) 25.1 µM [inhibitor, single point]
O=C(NCCNC(=O)c1cc(OCC(F)(F)F)ccc1OCC(F)(F)F)Nc1cccc(C(F)(F)F)c1 31.6 µM [quencher, side channel, single point]

FP activity change, negative = inhibition, inactive:
O=C(NNC(=O)C1CC1c1ccccc1)Nc1ccccc1 (stereo not given) -13.8%
Cc1cccc(NCc2ccc([N+](=O)[O-])s2)c1 30.4%
COc1ccc(-n2nc(C(=O)NCC(=O)NCc3ccc(F)cc3)c3ccccc3c2=O)cc1 28.8%
CC[C@H](C)[C@H](NC(=O)[C@@H](NC(=O)[C@@H](NC(=O)[C@H](CCC(=O)O)NC(=O)[C@H](CCC(=O)O)NC(=O)[C@H](CCC(=O)O)NC(=O)[C@H](C)NC(=O)[C@@H](N)CC(C)C)C(C)C)C(C)C)C(=O)N[C@@H](CCCNC(=N)N)C(=O)N[C@@H](CO)C(=O)N[C@@H](C)C(=O)N[C@@H](CC(N)=O)C(=O)N[C@@H](Cc1ccccc1)C(=O)N[C@H](C(=O)N[C@@H](CC(=O)O)C(=O)N[C@@H](CC(N)=O)C(=O)O)[C@@H](C)O 14.2%
Oc1ccccc1/C=N/Nc1nccnc1Cl 2.69%
CCn1nc(C(=O)Nc2ccc3nc(C)sc3c2)c2ccccc2c1=O 1.2%
CC(=O)N1CCC[C@@]2(CCN(C(c3ccccc3)c3ccccc3)C2)C1 -15.6%
NC(=S)NNc1ccnc2cc(Cl)ccc12 -1.1%
Cc1cccn2c(=O)c(C=Nc3c(C)n(C)n(-c4ccccc4)c3=O)c(N3CCCC3)nc12 -1.33%

— PubChem BioAssay AID1768 (National Center for Advancing Translational Sciences (NCATS), 2009)
